The supplement of paper PMC10126150
Sequences with one replicate were seen in a single cluster, so their values are uncertain.

Test system: ATP
Assay: switch fluorescence ratio, 500 uM ATP over buffer (Cy3 cluster intensity, sum of 5 cycles each) (fold (ratio)); higher = stronger signal-on switching upon ATP binding; sequences stand for … in TCGTCGGCAGCGTCAGATGTGTATAAGAGACAGTTTTTTTTTTTTTTTTTTTTTTTTT…TC
Settings: aptamer strand: ATP DNA aptamer (quencher-CACCTGGGGGAGTATTGCGGAGGAAGG + anchor), 100 nM annealed; ATP concentration: 500 uM; one replicate
Procedure, shortened: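 Switching-strand clusters labelled with Cy3 on a modified Illumina MiSeq flow-cell were annealed to 100 nM quencher-labelled ATP aptamer, imaged in selection buffer, and re-imaged after 15 min with 500 uM ATP at 22 °C. This was done over five cycles with NaOH stripping and re-annealing in between. The fluorescence ratio is summed target-cycle over summed buffer-cycle Cy3 intensity per cluster, averaged per switch-domain sequence, excluding clusters outside 100-1000 RFU.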
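Also: ATP exposure 15 min at 22 °C before imaging.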

Sequence	switch fluorescence ratio
CGGAGTAATA	4.82
GAAGCCACCT	0.968
CTGTGGCGCC	0.986
GCCGGATTTC	1.01
ATGTTTGATA	0.989
CCTAGATGGT	0.971
TTTTGACGTA	1.04
TAGTGTGCGG	0.989
TTGGACGGAG	0.909
CCCGAACCGT	1.02
GCGAAGTCTT	0.972
ATGTGTGAAC	1.04
GTCGAGCCGC	1.02
ACACTTGGTG	1.05
CCGATTCCGG	1.05
TGTGACCCCG	0.904
CCACGTGTTT	1.09
ACGGAAAGTG	0.945
ACTCAGGAG	0.999
CGCACGGCTG	1.16
CCGGGAGGG	1.61
ATAAGCGA	1.07
CCAATCAAAT	1.04
CGAGGAGCCG	0.988
ATTGCATACT	1.12
ACTCCTTGGA	1.03

Sequence	switch fluorescence ratio
CGCCGTGCAG	0.998
CCATGTTTAG	1.02
AAGCCGAGAG	0.963
TAGCACGCAT	1.25
AGGTCGCTC	1.03
CCATATCCGG	1.04
AAACTCATCA	0.969
GCTTTCGTCG	1.03
TCGCCGGAGG	1.02
AATTTAGTGG	0.991
ATCTGGTCTT	0.998
CCTCTAGGCA	1.96
CGCCGAGCAT	1.06
GTCTTTAATC	0.95
ATGTTGAAC	1.01
CACATACGGG	1.62
CTGGAGATTC	1.03
ATTGCCGGAT	1.05
TCTGGGATTT	1.27
AATTCCGCCG	1.07
TCGCAGCGGA	1.21
AAAATCGTGC	0.981
ACCCGTTTT	0.995
ACTTTCTTAT	1.02
TGAGATTACG	0.935
CGGATGTGAG	1.02

Sequence	switch fluorescence ratio
CATGGGTTGT	0.984
TGTTGTCGGC	0.983
GGCTGGTCCA	1
TCCCCTTCAA	2.1
AAAACTGGG	1.17
GCTGCGGCAA	1.08
ATGTTGTACC	1.02
CCATGGCCTT	0.978
GAGAGCTGTT	0.983
TGTGTGTTGT	0.998
ATGAACCTCG	1.08
GCGTGATCTG	0.997
CCCCGATAGA	1.11
TCCCTGGGTT	1.01
TCACTC	1.05
ACGATTCTCT	0.972
ATGCCTAACC	1.04
CATGTGAAAC	0.966
CACCTTAGCC	1.11
TGGGGAATCA	1.06
ATAAGATAGA	0.983
GTATGTAAAA	0.947
CTTGACACGT	1.03
ATGTGCCTGA	1.01
CTGATACGA	1.01
AGGATCTAAA	0.97

Sequence	switch fluorescence ratio
GCTGAGCGCG	0.982
AAAAAAGACC	1.02
GGTGCCGACG	1.02
GGTCAACCGC	1.07
TAGAGTATGA	1
AAGACTGACT	1.14
TTGGAGTTAT	1
ACCTGGTAGC	1.06
GGTCCTTTCG	1.02
TACGTCGGGC	0.955
AGCGGACCAG	0.988
TGTTTCGTTG	1
ACTTTCGATA	1.03
GCACTTTTAC	1.31
TGGGTTTGCA	1.01
ACTAGCGGTG	1.03
GCCATAGGCA	0.987
TAAGTATACG	0.952
ACTTTCGAGG	1.05
AAGTTCTGTT	0.98
ATGCGAACGG	0.965
CTCTACTTGG	1.05
CACTATGCTT	0.996
GGTTACCG	1.01
AAAATAGAA	0.98
GTTTGACACA	1.02

Sequence	switch fluorescence ratio
CGTCTGTAAT	4.14
CATTTAAGTT	0.998
ATAAACTTGC	1.13
CAAAGCCATA	1.05
CCACACCTAT	1.09
AGTATGAAGT	0.997
TAAAGTCCCT	1.06
CTATAGTCTA	1.03
TTAACCACAC	1.16
GTCTTCAGCT	0.987
GGAGCGTCGT	1.01
CATGCACTCG	1.03
AGAGCTTTA	0.967
CACAGAAGT	1.01
GTAAGCGCGA	0.993
TGCCTGATT	1.03
CTCACCGGTC	1.01
GGTCGAGTAC	1.05
TAAAGTTGAA	0.983
TTTTCCCCAT	1.04
GTGGCTGTCC	1.04
CTAAAGAGCT	0.967
CCTTGTAGG	0.965
CTAGGCGTGG	0.957
CCACCAAAAG	1.19
GATCCAAAGA	1.07

Sequence	switch fluorescence ratio
TAACTGAACT	1.14
GCTGTAGACA	0.987
ACAATCCTCC	1.68
CCAAGCCCAT	1.17
CCCTCTGTCA	1.4
TGATACGGGT	1.01
CCTTAGCTCG	0.962
CGGCGCTGAG	1
GATTTTAGCT	0.975
CGATTCTTCG	1.05
CGATGGTTCC	0.993
GCGGGAAGAG	1.06
CTCGGACGTA	0.929
CATTGGTTAA	1.01
AACTAATGCG	0.968
GGGCATAATA	0.961
GTTGTTGGTC	0.985
CAGCCTGAAC	1.32
TTGCAATCCG	1.14
GGCTACCGTG	0.975
GGTCCGTGTA	1
TACTTAAATC	1.03
CTATAGGAGG	0.992
GGTGATACTG	1.04
CATTACGAAA	1.07
GGCGGATTTC	1.01

Sequence	switch fluorescence ratio
GGGAGGGGT	0.973
ATTTTGTTCC	1.03
TGGAGAATCT	1.04
AGTTAGATTT	0.976
TGGAACAC	1
CTGGCCTATA	1.04
CGCGCAGTTC	2.32
TAATACATAT	1.04
GATAGTTGAA	0.965
AAAGGGACG	0.964
TTCCTTCAGG	1.03
TTGTGGTAGC	1.01
CCAGTGCTTC	1.07
ACGGGCTCAT	0.99
TGCGCTCCCA	1.15
AAACCACTGG	1.06
ACGGGCTCG	0.978
AAGAAGTACT	1.46
ATATATGTTG	0.991
CTTATGTATG	1
TCTAATCAT	1.02
TATGGATAGA	1.03
ACACAGGGAT	0.981
GCAATTTAAG	0.99
AACCAGCTTC	1.01
TCAAGGGC	1.06

Sequence	switch fluorescence ratio
GGTTGTCCGG	1.01
AGCTGGTGCT	1
TCGATGATGA	0.982
TGGAGCTGTG	1.2
GATATACAGT	1.04
CAATTGCGTC	1.02
TGACTGAGTG	1.05
AAGGAGCGGG	1.14
GCCTCGGGCC	0.975
TCTTTCTTAG	0.993
GGCCGTAAAT	1.01
GAGGTCAATT	1.03
GTTGCACCGG	1.01
CGACCGAGC	1.51
CGGGGTCTGC	0.978
TTACAGACGC	1.1
TACCGACAGC	1.5
ATTAGGAATC	0.996
GGCTATCACT	1.02
